The source of these data is patent US20200157180A1 (JIANGSU HENGRUI MEDICINE, published 2020).

The target in this assay is human TGF-β1 (human, UniProt P01137 partial chain). Put plainly: cell-based or functional assay.
UniProt P01137, sequence (P01137 279-390 limits assumed): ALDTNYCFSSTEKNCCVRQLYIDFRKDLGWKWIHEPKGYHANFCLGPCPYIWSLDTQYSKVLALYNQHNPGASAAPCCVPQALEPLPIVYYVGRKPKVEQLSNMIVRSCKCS

B1: M7824 (other)
heavy: EVQLLESGGGLVQPGGSLRLSCAASGFTFSSYIMMWVRQAPGKGLEWVSSIYPSGGITFYADTVKGRFTISRDNSKNTLYLQMNSLRAEDTAVYYCARIKLGTVTTVDYWGQGTLVTVSSASTKGPSVFPLAPSSKSTSGGTAALGCLVKDYFPEPVTVSWNSGALTSGVHTFPAVLQSSGLYSLSSVVTVPSSSLGTQTYICNVNHKPSNTKVDKRV[gap - human IgG1 Fc]GGGGSGGGGSGGGGSGGGGSGIPPHVQKSVNNDMIVTDNNGAVKFPQLCKFCDVRFSTCDNQKSCMSNCSITSICEKPQEVCVAVWRKNDENITLETVCHDPKLPYHDFILEDAASPKCIMKEKKKPGETFFMCSCSSDECNDNIIFSEEYNTSNPD
light: QSALTQPASVSGSPGQSITISCTGTSSDVGGYNYVSWYQQHPGKAPKLMIYDVSNRPSGVSNRFSGSKSGNTASLTISGLQAEDEADYYCSSYTSSSTRVFGTGTKVTVLGQPKANPTVTLFPPSSEELQANKATLVCLISDFYPGAVTVAWKADGSPVKAGVETTKPSKQSNNKYAASSYLSLTPEQWKSHRSYSCQVTHEGSTVEKTVAPTECS
Consider B1, for which the “IC50 (read off the curve)” value is about 0.02 nM.

B2: Fusion protein 9 (other)
heavy: QVQLVQSGAEVKKPGASVKVSCKASGYTFTSYWMHWVRQAPGQGLEWMGRIGPNSGFTSYNEKFKNRVTMTRDTSTSTVYMELSSLRSEDTAVYYCARGGSSYDYFDYWGQGTTVTVSSASTKGPSVFPLAPCSRSTSESTAALGCLVKDYFPEPVTVSWNSGALTSGVHTFPAVLQSSGLYSLSSVVTVPSSSLGTKTYTCNVDHKPSNTKVDKRV[gap - human IgG4 Fc with S228P F234A L235A (EU numbers)]AGGGGSGGGGSGGGGSGGGGSGGAVKFPQLCKFCDVRFSTCDNQKSCMSNCSITSICEKPQEVCVAVWRKNDENITLETVCHDPKLPYHDFILEDAASPKCIMKEKKKPGETFFMCSCSSDECNDNIIFSEEYNTSNPD
light: DIVLTQSPASLAVSPGQRATITCRASESVSIHGTHLMHWYQQKPGQPPKLLIYAASNLESGVPARFSGSGSGTDFTLTINPVEAEDTANYYCQQSFEDPLTFGQGTKLEIKRTVAAPSVFIFPPSDEQLKSGTASVVCLLNNFYPREAKVQWKVDNALQSGNSQESVTEQDSKDSTYSLSSTLTLSKADYEKHKVYACEVTHQGLSSPVTKSFNRGEC
As to B2, the “IC50 (read off the curve)” value is about 0.03 nM.
